Experimental data: patent US5858678, “Apoptosis-regulating proteins” (St. Louis University, dated 1999)

Experiments:
[1] = biological target: human Bax (two-hybrid partner) (human, UniProt Q07812); test: yeast two-hybrid
yeast SNF1 protein bait = yeast SNF1 protein bait (yeast, UniProt P06782); test: yeast two-hybrid in strain Y153, X-gal (W = White)
Protocol: To determine the specificity of the two hybrid interaction, the three clones, 22, 44 and 91, were tested against baits expressing several heterologous proteins (Table 1). Among the various heterologous protein baits used, the adenovirus E3 11.6 kD protein is of particular interest as that protein localizes on the nuclear envelope region and has an internal hydrophobic domain like the E1B 19 kD protein (Scaria et al., 1992).
B = Blue W = White [@]Interactions with all baits except the yeast SNF1 protein were carried out in yeast Strain GGY1::171. Interaction with SNF1 was carried out in yeast strain Y153. *Colonies which appeared on -his, -trp, -leu plates after 6–8 days. Results of X-gal staining are indicated as B, blue; W, white; or ND, not done. The heterologous baits pLAM5 (human lamin) and pAS-SNF1 (yeast SNF1) have been described (Bartel et al., 1993, Durfee et al., 1993). Baits pHIV-1 Rev, pHIV-1 Tat, pHIV-1 Nef and pHTLV-1 Rex expressing the various HIV or HTLV regulating proteins were constructed as described herein and obtained from Cleta D'Sa Eipper and T. Subramanian, St. Louis University Medical Center, St. Louis, MO.

[2] = biological target: GAL4 DNA binding domain alone (vectors pMA424 or pAS1) (yeast, UniProt P04386); test: yeast two-hybrid with the empty GAL4 DNA binding domain vectors

Measured: binding result

B1: Nip3 (19K-interacting protein 3), protein coded by cDNA clone 91, tagged with the GAL4 activation domain (other)
chain: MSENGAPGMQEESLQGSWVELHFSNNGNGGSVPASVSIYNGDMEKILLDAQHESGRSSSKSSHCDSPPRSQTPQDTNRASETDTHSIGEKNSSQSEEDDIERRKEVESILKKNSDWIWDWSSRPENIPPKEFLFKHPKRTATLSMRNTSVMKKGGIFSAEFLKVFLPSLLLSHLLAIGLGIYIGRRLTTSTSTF
no binding: [1] | yeast SNF1 protein bait | [2]
